The results in this text go back to the supplement of paper PMC9446081.

Hit rate of the full screen: of about 39,000 compounds, about 220 (0.56%) showed activity. The list shows a part of the results.
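Also: static incubation at 37 °C against the wild-type strain, values averaged over two biological replicates.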

The subject of the assay is Escherichia coli K-12 BW25113. Put plainly: relative growth (OD600 normalised to plate interquartile mean) (fraction); higher = less growth inhibition, active = 0.2 or less. The conditions noted are these: 50 µM; LB; incubation time: overnight (16-24 h).
On to `C[C@H]1CN([C@@H](C)CO)C(=O)c2cc(C#Cc3ccncc3)cnc2O[C@H]1CN(C)S(=O)(=O)c1ccccc1F`, for which the relative growth was inactive: 0.974. In the case of `Cc1noc(C)c1S(=O)(=O)N(C)C[C@@H]1Oc2ccc(NS(=O)(=O)c3ccc(F)cc3)cc2C(=O)N([C@@H](C)CO)C[C@@H]1C`, the relative growth was inactive: 0.991. On to `C=CC[C@@H](CC(=O)N[C@@H](CO)Cc1ccccc1)C(=O)N1CCC[C@@H]1COC(=O)[C@@H](CC=C)NC(=O)OCC1c2ccccc2-c2ccccc21`, for which the relative growth is inactive: 1.03. For the compound `CS(=O)(=O)CC(=O)N1C[C@@H]2CN(Cc3ccoc3)CCO[C@@H]2C1`, the relative growth was inactive: 0.985. As to `Oc1cc(C2CCCCC2)cc(C2CCCCC2)c1`, the relative growth was inactive: 1.02.

For the compound `C[C@@H]1CN([C@@H](C)CO)C(=O)c2cc(NS(=O)(=O)c3cccs3)ccc2O[C@@H]1CN(C)S(=O)(=O)c1cn(C)cn1`, the relative growth is inactive: 0.982. In the case of `COc1ccc(-c2noc(CSc3nc4sc(C)c(C)c4c(=O)n3-c3ccccc3)n2)cc1OC` it was inactive: 1.04; in that of `C[C@H](CO)N1C[C@H](C)[C@H](CN(C)C(=O)Nc2ccc3c(c2)OCO3)Oc2ccc(NC(=O)c3ccncc3)cc2CC1=O`, inactive: 0.998; in that of `C[C@@H]1CCCCO[C@@H](CN(C)S(=O)(=O)c2ccc(F)cc2)[C@H](C)CN([C@H](C)CO)C(=O)c2cc(NC(=O)Nc3ccc4c(c3)OCO4)ccc2O1`, inactive: 1.04. Regarding `CC(C)(C)CC(C)(C)c1ccc(OCCOCC[N+](C)(C)Cc2ccccc2)cc1.[Cl-]`, the relative growth is active: 0.0469. In the case of `Cc1ccc(S(=O)(=O)N(C)C[C@@H]2Oc3ccc(NS(=O)(=O)c4ccc(F)cc4)cc3CC(=O)N([C@@H](C)CO)C[C@H]2C)cc1` it was inactive: 0.984. For the compound `COc1ccc2c3c(n(c2c1)C)[C@H](CO)N(C[C@]13CCN(CC1)S(=O)(=O)c1ccccc1)C(=O)c1cccnc1`, the relative growth was inactive: 0.998. With `CC(C)C(=O)N1CC[C@H]2CN(CC(=O)N(C)C)S(=O)(=O)[C@@H]2CC1`, the relative growth is inactive: 0.983. In the case of `Cc1ccc(S(=O)(=O)N(C)C[C@H]2OCCCC[C@H](C)Oc3ccc(NC(=O)C4CCCCC4)cc3C(=O)N([C@@H](C)CO)C[C@H]2C)cc1` it was inactive: 1.04.

In the case of `COC(=O)/C=C/c1cn([C@H]2OC[C@@H](CO)[C@@H]2O)c(=O)[nH]c1=O`, the relative growth is inactive: 1.03. `CNC(=O)CN(C#N)c1nc(C)cc(C)n1`: the relative growth is inactive: 1.01. For `C[C@H]1CN([C@@H](C)CO)C(=O)Cc2cc(NS(=O)(=O)c3cn(C)cn3)ccc2O[C@H]1CN(C)S(=O)(=O)c1cccs1`, the relative growth was inactive: 0.997. Take `COCC(=O)Nc1ccc2c(c1)C(=O)N(C)[C@H]1CC[C@@H](CC(=O)NCc3ccc(OC)cc3)O[C@@H]1CO2`: the relative growth is inactive: 0.993. Take `C[C@@H]1CN([C@@H](C)CO)C(=O)c2cc(C#C[C@@H](C)O)cnc2O[C@H]1CN(C)C(=O)Nc1ccc(C(F)(F)F)cc1`: the relative growth was inactive: 0.995. `C[C@H](CO)N1C[C@H](C)[C@H](CN(C)CC2CC2)Oc2ccc(NS(=O)(=O)c3cccs3)cc2CC1=O`: the relative growth was inactive: 0.971.

For `C[C@@H]1CCCCO[C@H](CN(C)Cc2ccncc2)[C@H](C)CN([C@H](C)CO)C(=O)c2cc(NC(=O)Nc3cccc4ccccc34)ccc2O1`, the relative growth was inactive: 0.995. In the case of `COc1ccc(S(=O)(=O)Nc2ccc3c(c2)CC(=O)N([C@@H](C)CO)C[C@H](C)[C@H](CN(C)S(=O)(=O)c2c(C)noc2C)O3)cc1` it was inactive: 0.996. Regarding `CCCNC(=O)C[C@@H]1CC[C@@H]2[C@H](COc3ccc(NS(=O)(=O)c4ccccc4C)cc3C(=O)N2C)O1`, the relative growth was inactive: 0.985. `CN(C)CC(=O)N[C@@H]1CC[C@@H](CC(=O)NCCN2CCCCC2)O[C@H]1CO`: the relative growth was inactive: 0.964.

As for `O=[N+]([O-])c1ccc(NCCNCCO)cc1`, the relative growth was inactive: 0.984. For the compound `C/C=C(\C(C)=N\O)c1ccccc1`, the relative growth was inactive: 1.01. With `CN1CCN(C(=O)C[C@H]2C=C[C@H](NC(=O)Nc3ccccc3F)[C@H](CO)O2)CC1`, the relative growth was inactive: 0.892. For `COc1ccc(NC(=O)N(C)C[C@H]2OCc3cnnn3CCCC(=O)N([C@H](C)CO)C[C@H]2C)c(OC)c1`, the relative growth is inactive: 0.981. The same measure for `CNC[C@H]1OCCCC[C@H](C)Oc2ccc(NS(=O)(=O)c3cn(C)cn3)cc2C(=O)N([C@@H](C)CO)C[C@@H]1C`: inactive: 0.948; for `Cc1ccc(S[C@]2(C(=O)NCc3ccccc3)CC(=O)N(Cc3ccccc3)[C@@H]2c2ccc(COC(=O)NCCCCCC(=O)NO)cc2I)cc1`: inactive: 1.06. `O=C(C[C@H]1C[C@H]2c3cc(NS(=O)(=O)c4ccc(F)cc4)ccc3O[C@H]2[C@@H](CO)O1)NC1CCCC1`: the relative growth was inactive: 1.01. Take `C[C@@H]1CCCCO[C@H](CN(C)C(=O)NC2CCCCC2)[C@H](C)CN([C@H](C)CO)C(=O)c2cc(NC(=O)C3CCCCC3)ccc2O1`: the relative growth was inactive: 1.02.

Take `COCC#Cc1cnc2c(c1)C(=O)N([C@@H](C)CO)C[C@H](C)[C@H](CN(C)C(=O)c1ccc3c(c1)OCO3)O2`: the relative growth is inactive: 0.996. For `C[C@@H]1CCCCO[C@@H](CN(C)Cc2ccc3c(c2)OCO3)[C@@H](C)CN([C@@H](C)CO)C(=O)c2cc(NC(=O)Nc3ccc(C(F)(F)F)cc3)ccc2O1`, the relative growth is inactive: 1.01.

On to `Oc1ccc([C@H]2CNCCN2)cc1`, for which the relative growth is inactive: 0.933. As for `C[C@@H]1CN([C@H](C)CO)C(=O)c2cc(NC(=O)CCC(F)(F)F)ccc2O[C@@H](C)CCCCO[C@H]1CN(C)C(=O)NC1CCCCC1`, the relative growth was inactive: 1.02. As to `C[C@H](CO)N1C[C@H](C)[C@H](CN(C)C(=O)Nc2ccc(C(C)(C)C)cc2)OCc2cn(nn2)CCCC1=O`, the relative growth is inactive: 1.01. In the case of `C[C@@H]1CN([C@H](C)CO)C(=O)Cc2cc(NC(=O)Cn3cnnn3)ccc2O[C@@H]1CN(C)C(=O)Nc1ccccc1` it was inactive: 0.962.

For `C[C@H](CO)N1C[C@H](C)[C@H](CN(C)C(=O)CN(C)C)Oc2cc(C#C[C@@H](C)O)ccc2S1(=O)=O`, the relative growth is inactive: 1.02.

For `C[C@@H]1CN([C@H](C)CO)C(=O)c2cc(NC(=O)c3ccccc3)ccc2O[C@@H](C)CCCCO[C@@H]1CN(C)C(=O)CCC(F)(F)F`, the relative growth is inactive: 0.978.
